Measurements reported in publication PMC6633398.
Results are given in words; binding and its absence hold for the method and conditions named. In cells and extracts the contact can be indirect. Some entries that bind do so weakly or less than the wild type.

The chains behind the UniProt entries cited, without tags or fusion partners. Where a name states a change or a piece, a line headed by the entry shows the natural chain unless it says otherwise.
UniProt O43681: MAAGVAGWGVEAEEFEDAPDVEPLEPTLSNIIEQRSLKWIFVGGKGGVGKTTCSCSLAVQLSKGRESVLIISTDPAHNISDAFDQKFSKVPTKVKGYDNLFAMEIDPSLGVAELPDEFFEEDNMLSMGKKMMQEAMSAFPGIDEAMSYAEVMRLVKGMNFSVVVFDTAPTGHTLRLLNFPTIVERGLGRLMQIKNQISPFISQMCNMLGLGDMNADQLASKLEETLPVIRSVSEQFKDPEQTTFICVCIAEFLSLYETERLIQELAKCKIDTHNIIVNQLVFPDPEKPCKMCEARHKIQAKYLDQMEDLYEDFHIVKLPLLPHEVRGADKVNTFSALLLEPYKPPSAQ

B1: syntaxin Stx5 (protein, UniProt Q13190 1-355)
chain: MIPRKRYGSKNTDQGVYLGLSKTQVLSPATAGSSSSDIAPLPPPVTLVPPPPDTMSCRDRTQEFLSACKSLQTRQNGIQTNKPALRAVRQRSEFTLMAKRIGKDLSNTFAKLEKLTILAKRKSLFDDKAVEIEELTYIIKQDINSLNKQIAQLQDFVRAKGSQSGRHLQTHSNTIVVSLQSKLASMSNDFKSVLEVRTENLKQQRSRREQFSRAPVSALPLAPNHLGGGAVVLGAESHASKDVAIDMMDSRTSQQLQLIDEQDSYIQSRADTMQNIESTIVELGSIFQQLAHMVKEQEETIQRIDENVLGAQLDVEAAHSEILKYFQSVTSNRWLMVKIFLILIVFFIIFVVFLA
B2: syntaxin Stx6 (protein, UniProt O43752 1-255)
chain: MSMEDPFFVVKGEVQKAVNTAQGLFQRWTELLQDPSTATREEIDWTTNELRNNLRSIEWDLEDLDETISIVEANPRKFNLDATELSIRKAFITSTRQVVRDMKDQMSTSSVQALAERKNRQALLGDSGSQNWSTGTTDKYGRLDRELQRANSHFIEEQQAQQQLIVEQQDEQLELVSGSIGVLKNMSQRIGGELEEQAVMLEDFSHELESTQSRLDNVMKKLAKVSHMTSDRRQWCAIAILFAVLLVVLILFLVL
B3: Stx8 (protein, UniProt Q9UNK0 1-236)
chain: MAPDPWFSTYDSTCQIAQEIAEKIQQRNQYERKGEKAPKLTVTIRALLQNLKEKIALLKDLLLRAVSTHQITQLEGDRRQNLLDDLVTRERLLLASFKNEGAEPDLIRSSLMSEEAKRGAPNPWLFEEPEETRGLGFDEIRQQQQKIIQEQDAGLDALSSIISRQKQMGQEIGNELDEQNEIIDDLANLVENTDEKLRNETRRVNMVDRKSASCGMIMVILLLLVAIVVVAVWPTN
B4: golgin-84 (also known as GOLGA5) (protein, UniProt Q8TBA6 1-731)
chain: MSWFVDLAGKAEDLLNRVDQGAATALSRKDNASNIYSKNTDYTELHQQNTDLIYQTGPKSTYISSAADNIRNQKATILAGTANVKVGSRTPVEASHPVENASVPRPSSHFVRRKKSEPDDELLFDFLNSSQKEPTGRVEIRKEKGKTPVFQSSQTSSVSSVNPSVTTIKTIEENSFGSQTHEAASNSDSSHEGQEESSKENVSSNAACPDHTPTPNDDGKSHELSNLRLENQLLRNEVQSLNQEMASLLQRSKETQEELNKARARVEKWNADHSKSDRMTRGLRAQVDDLTEAVAAKDSQLAVLKVRLQEADQLLSTRTEALEALQSEKSRIMQDQSEGNSLQNQALQTFQERLHEADATLKREQESYKQMQSEFAARLNKVEMERQNLAEAITLAERKYSDEKKRVDELQQQVKLYKLNLESSKQELIDYKQKATRILQSKEKLINSLKEGSGFEGLDSSTASSMELEELRHEKEMQREEIQKLMGQIHQLRSELQDMEAQQVNEAESAREQLQDLHDQIAGQKASKQELETELERLKQEFHYIEEDLYRTKNTLQSRIKDRDEEIQKLRNQLTNKTLSNSSQSELENRLHQLTETLIQKQTMLESLSTEKNSLVFQLERLEQQMNSASGSSSNGSSINMSGIDNGEGTRLRNVPVLFNDTETNLAGMYGKVRKAASSIDQFSIRLGIFLRRYPIARVFVIIYMALLHLWVMIVLLTYTPEMHHDQPYGK
B5: Stx18 (protein, UniProt Q9P2W9 1-335)
chain: MAVDITLLFRASVKTVKTRNKALGVAVGGGVDGSRDELFRRSPRPKGDFSSRAREVISHIGKLRDFLLEHRKDYINAYSHTMSEYGRMTDTERDQIDQDAQIFMRTCSEAIQQLRTEAHKEIHSQQVKEHRTAVLDFIEDYLKRVCKLYSEQRAIRVKRVVDKKRLSKLEPEPNTKTRESTSSEKVSQSPSKDSEENPATEERPEKILAETQPELGTWGDGKGEDELSPEEIQMFEQENQRLIGEMNSLFDEVRQIEGRVVEISRLQEIFTEKVLQQEAEIDSIHQLVVGATENIKEGNEDIREAIKNNAGFRVWILFFLVMCSFSLLFLDWYDS
B6: GOSR2 (protein, UniProt O14653 1-212)
chain: MDPLFQQTHKQVHEIQSCMGRLETADKQSVHIVENEIQASIDQIFSRLERLEILSSKEPPNKRQNARLRVDQLKYDVQHLQTALRNFQHRRHAREQQERQREELLSRTFTTNDSDTTIPMDESLQFNSSLQKVHNGMDDLILDGHNILDGLRTQRLTLKGTQKKILDIANMLGLSNTVMRLIEKRAFQDKYFMIGGMLLTCVVMFLVVQYLT
B7: UBE2J1 (protein, UniProt Q9Y385 1-318)
chain: METRYNLKSPAVKRLMKEAAELKDPTDHYHAQPLEDNLFEWHFTVRGPPDSDFDGGVYHGRIVLPPEYPMKPPSIILLTANGRFEVGKKICLSISGHHPETWQPSWSIRTALLAIIGFMPTKGEGAIGSLDYTPEERRALAKKSQDFCCEGCGSAMKDVLLPLKSGSDSSQADQEAKELARQISFKAEVNSSGKTISESDLNHSFSLTDLQDDIPTTFQGATASTSYGLQNSSAASFHQPTQPVAKNTSMSPRQRRAQQQSQRRLSTSPDVIQGHQPRDNHTDHGGSAVLIVILTLALAALIFRRIYLANEYIFDFEL
B8: LAP2B (protein, UniProt P42167 1-454)
chain: MPEFLEDPSVLTKDKLKSELVANNVTLPAGEQRKDVYVQLYLQHLTARNRPPLPAGTNSKGPPDFSSDEEREPTPVLGSGAAAAGRSRAAVGRKATKKTDKPRQEDKDDLDVTELTNEDLLDQLVKYGVNPGPIVGTTRKLYEKKLLKLREQGTESRSSTPLPTISSSAENTRQNGSNDSDRYSDNEEDSKIELKLEKREPLKGRAKTPVTLKQRRVEHNQSYSQAGITETEWTSGSSKGGPLQALTRESTRGSRRTPRKRVETSEHFRIDGPVISESTPIAETIMASSNESLVVNRVTGNFKHASPILPITEFSDIPRRAPKKPLTRAEVGEKTEERRVERDILKEMFPYEASTPTGISASCRRPIKGAAGRPLELSDFRMEESFSSKYVPKYVPLADVKSEKTKKGRSIPVWIKILLFVVVAVFLFLVYQAMETNQVNPFSNFLHVDPRKSN
B9: PTP1B (also known as PTPN1) (protein, UniProt P18031 1-435)
chain: MEMEKEFEQIDKSGSWAAIYQDIRHEASDFPCRVAKLPKNKNRNRYRDVSPFDHSRIKLHQEDNDYINASLIKMEEAQRSYILTQGPLPNTCGHFWEMVWEQKSRGVVMLNRVMEKGSLKCAQYWPQKEEKEMIFEDTNLKLTLISEDIKSYYTVRQLELENLTTQETREILHFHYTTWPDFGVPESPASFLNFLFKVRESGSLSPEHGPVVVHCSAGIGRSGTFCLADTCLLLMDKRKDPSSVDIKKVLLEMRKFRMGLIQTADQLRFSYLAVIEGAKFIMGDSSVQDQWKELSHEDLEPPPEHIPPPPRPPKRILEPHNGKCREFFPNHQWVKEETQEDKDCPIKEEKGSPLNAAPYGIESMSQDTEVRSRVVGGSLRGAQAASPAKGEPSLPEKDEDHALSYWKPFLVNMCVATVLTAGAYLCYRFLFNSNT
B10: nesprin SYNE3 (protein, UniProt Q6ZMZ3 1-975)
chain: MTQQPQDDFDRSVEDAQAWMKAVQDQLQVNDNTQGPRAALEARLWETEKICQLEPEGRVRVDLVLRMAEALLACCPGDQKPGILARLKDIKAQWEETVTYMTHCHSRIEWVWLHWSEYLLARDEFYRWFQKMMVTLEPHIELQLGLKEKQWQLSHAQVLLHNVDNQAVLLDRLLEEAASLFNRIGDPSVDEDAQKRMKAEYDAVKAKAQKRVDLLEQVAREHEEYQAGVDEFQLWLKAVVEKVNGCLGRNCKLPITQRLSTLQDIAKDFPRGEESLETLEEQSAGVIRNTSPLGAEKITGELEEMRKVLEKLRALWEEEEERLRGLLRSRGAWEQQIKQLEAELSEFRMVLQRLAQEGLQPAAKAGTEDELVAHWRRYSATRAALASEEPRVDRLQAQLKELIVFPHNLKPLSDSVIATIQEYQSLKVKSARLRNAAAVELWQHFQRPLQDLQLWKALAQRLLEVTASLPDLPSLHTFLPQIEAALMESSRLKELLTMLQLKKDLLIGIFGQERATALLEQVAGSMRDRDLLHNSLLQRKSKLQSLLAQHKDFGAAFEPLQRKLLDLQVRVQAEKGLQRDLPGKQAQLSRLQGLQEEGLDLGAQMEAARPLVQENPNHQHKMDQLSSDFQALQRSLEDLVDRCRQSVQEHCTFSHQLLELRQWIVVTTQKLEAHRGEAGPGDAESQEAEFERLVAEFPEKEAQLSLVEAQGWLVMEKSSPEGAAVVQEELRELAESWRALRLLEESLLSLIRNWHLQRMEVDSGKKMVFTNNIPKSGFLINPMDPIPRHRRRANLLQEEEGSHEDFSQLLRNFGQWLQVENSKLVRIIAMRTSTAEDLRTRKSKLQELEARVPEGQHLFENLLRLGPARGTSDELEDLRYQWMLYKSKLKDSGHLLTQSSPGEPTGFQKTRRWRGLGSLFRRACCVALPLQLLLLLFLLLLFLLPIREEDRSCTLANNFARSFTLMLRYNGPPPT
B11: ZFPL1 (protein, UniProt O95159 1-310)
chain: MGLCKCPKRKVTNLFCFEHRVNVCEHCLVANHAKCIVQSYLQWLQDSDYNPNCRLCNIPLASRETTRLVCYDLFHWACLNERAAQLPRNTAPAGYQCPSCNGPIFPPTNLAGPVASALREKLATVNWARAGLGLPLIDEVVSPEPEPLNTSDFSDWSSFNASSTPGPEEVDSASAAPAFYSQAPRPPASPGRPEQHTVIHMGNPEPLTHAPRKVYDTRDDDRTPGLHGDCDDDKYRRRPALGWLARLLRSRAGSRKRPLTLLQRAGLLLLLGLLGFLALLALMSRLGRAAADSDPNLDPLMNPHIRVGPS
B12: MOSPD2 (protein, UniProt Q8NHP6 1-518)
chain: MAENHAQNKAKLISETRRRFEAEYVTDKSDKYDARDVERLQQDDNWVESYLSWRHNIVDETLKMLDESFQWRKEISVNDLNESSIPRWLLEIGVIYLHGYDKEGNKLFWIRVKYHVKDQKTILDKKKLIAFWLERYAKRENGKPVTVMFDLSETGINSIDMDFVRFIINCFKVYYPKYLSKIVIFDMPWLMNAAFKIVKTWLGPEAVSLLKFTSKNEVQDYVSVEYLPPHMGGTDPFKYSYPPLVDDDFQTPLCENGPITSEDETSSKEDIESDGKETLETISNEEQTPLLKKINPTESTSKAEENEKVDSKVKAFKKPLSVFKGPLLHISPAEELYFGSTESGEKKTLIVLTNVTKNIVAFKVRTTAPEKYRVKPSNSSCDPGASVDIVVSPHGGLTVSAQDRFLIMAAEMEQSSGTGPAELTQFWKEVPRNKVMEHRLRCHTVESSKPNTLTLKDNAFNMSDKTSEDICLQLSRLLESNRKLEDQVQRCIWFQQLLLSLTMLLLAFVTSFFYLLYS

The binders below were run against c-Myc–TRC40_(D74E), ATPase-impaired trap mutant of TRC40 (UniProt O43681) (assay: co-IP; c-Myc–TRC40 variants expressed in transfected HEK293 cells; precipitated with anti-c-Myc agarose from the cytosolic fraction (180,000 g, 1 h) in the absence of detergent; IP buffer 50 mM HEPES, 150 mM NaCl, 1.5 mM MgCl2, 1 mM EGTA, pH 7.4; 2.5 h; endogenous TA proteins detected by western blot).
In the case of B1, the binding is reported as “binds”. For B2, the binding was “binds”. In the case of B3, the binding is reported as “binds”. In the case of B4, the binding is reported as “binds”. With B5 the binding was “binds”. With B6 the binding was “binds”. For B7, the binding was “binds”. With B8 the binding was “binds”. For B9, the binding was “no binding”. For B10, the binding was “no binding”. B11 was tested, and the binding was “no binding”. With B12 the binding was “no binding”.
